Drawing on PubChem BioAssay AID434955 (Southern Research Specialized Biocontainment Screening …, 2010), this text covers inhibition for 66 molecules.

The list shows a part of the results. Shown are side measurements of this screen, not its main read-out; they come without a call. Most of these compounds were active or inconclusive in the main read-out, so they are no random draw.

The nature of this experiment: beta-lactam sensitization of Mtb H37Rv, H37Rv (AID 434955).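 Note: growth measured after seven days incubation then overnight dye step; 0% = bacteria only wells and 100% = bacteria with antibiotic.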 Particulars: M. tuberculosis H37Rv growth with meropenem, percent inhibition; measured here: primary screen without meropenem; at 25 µM.
As a reminder, the inhibition is the relative decrease from the control value, in per cent. Regarding `CCOC(=O)c1ccc(NS(=O)(=O)c2ccc3c(c2)oc(=O)n3C)cc1`, the inhibition came out at 1.14%.
As for `CCOC(=O)c1c(NC(=O)CN2C(=O)NC3(CCC(C)CC3)C2=O)sc(C)c1-c1ccc(C)cc1` (stereo unspecified), the figure is 3.37%; as for `COc1cc(CC(=O)N2CCC(n3nccc3NC(=O)C3CC3)CC2)cc(OC)c1OC`, -24.2%; as for `COc1ccc2oc(C(=O)OCC(=O)NC3CCCC3)c(C)c2c1`, 5.91%.
The value for `CN(C)Cc1ccc(F)cc1Sc1ccc(Cl)cc1Cl` was 6.4%.
Consider `CCCCOc1ccc(C(=O)NCC(=O)NCC(=O)OCC)cc1`, for which the inhibition came to 85.6%.
The value for `O=C(CCS(=O)(=O)c1ccccc1)Nc1nnc(-c2ccco2)o1` was 0.36%; that for `O=C1C=C2C=C[C@H]3C[C@]2(O1)[C@@H]1CCCCN13` was -3.54%; that for `O=C(CN1C(=O)S/C(=C\C=C\c2ccccc2)C1=O)N1CCCCC1` was -6.38%.
`Cc1ccc(S(=O)(=O)c2nc(-c3cccs3)oc2NCc2cccnc2)cc1`: the inhibition came out at 2.04%.
The value for `COc1ccccc1/C=C/CN1CC(C)OC(C)C1` (stereo unspecified) was -7.72%.
As for `CN(C)CCCN(C(=O)/C=C/c1cccs1)c1nc2ccc(F)cc2s1`, the figure is 36.5%.
The value for `CN(CC1CCCO1)S(=O)(=O)c1ccc(C(=O)Nc2ccccc2F)cc1` (stereo unspecified) was 2.32%; that for `CCCCNC(=O)Nc1cc(C(F)(F)F)c[nH]c1=O` was -6.78%; that for `O=C1CCC(C(=O)N(CCO)Cc2ccccc2)CN1CC1CCCCC1` (stereo unspecified) was 2.89%.
As to `O=c1c2cc(Cl)ccc2[nH]c(=S)n1Cc1cccs1`, the inhibition amounted to 5.34%.
As for `COc1ccc(C(=O)NC2CCSc3ccccc32)cc1` (stereo unspecified), the figure is 3.59%.
For `Cc1ccc(S(=O)(=O)N(C)CC(=O)N2CC(C)OC(C)C2)cc1` (stereo unspecified), the inhibition was -0.12%.
Consider `CN1C(=O)C(C)(C)c2cc(S(=O)(=O)N3CCCC3C(=O)NCc3ccccc3Cl)ccc21` (stereo unspecified), for which the inhibition was -11.7%.
The value for `O=C(NCCNc1ccc([N+](=O)[O-])cc1)c1cccc(Br)c1` was 4.97%.
The value for `COC(=O)c1c(C(=O)OC)c(C)n(Cc2ccco2)c1C` was 3.09%.
Take `O=C(Nc1ccccc1Br)c1cccc2ccccc12`: the inhibition turned out to be 48.6%.
The value for `O=C(Nc1cccc(C(F)(F)F)c1)C(Sc1cccc[n+]1[O-])c1ccccc1` (stereo unspecified) was 0.11%; that for `Cc1[nH]c2ccccc2c1C(=O)C(=O)NCCc1ccc(S(N)(=O)=O)cc1` was -0.68%.
The value for `O=C(/C=C/c1ccc(OC2CSC2)cc1)c1ccccc1` was 94.6%.
As for `Cc1ccc(NC(=O)c2nc[nH]c2C(=O)N[C@H](C)c2ccccc2)cc1`, the figure is 90.7%.
On to `COC(=O)c1sccc1S(=O)(=O)NCc1ccc(S(N)(=O)=O)cc1`, for which the inhibition was -5.33%.
As to `O=C(Nc1ccnn1C1CCN(C/C=C/c2ccccc2)CC1)c1ccccc1`, the inhibition worked out at 2.69%.
As for `COc1ccc2nc(/N=C/c3c(C)[nH]n(-c4ccc(C)cc4C)c3=O)sc2c1`, the figure is 12%.
With `CC(=O)Nc1cccc(-c2nnc(SCC(=O)n3c4c(c5ccccc53)CCCC4)n2C)c1`, the inhibition was -4.77%.
As for `CCOc1ccc2nc(N(CCN(C)C)C(=O)/C=C/c3cccs3)sc2c1`, the figure is 52.3%; as for `COc1cccc(-c2ccc(-c3noc(-c4ccccc4F)n3)c(OC)n2)c1`, 25.2%; as for `O=C(C[n+]1cc(Br)cc2ccccc21)c1ccc(F)cc1`, 0.44%.
The value for `Cn1ccnc1C(=O)Cc1ccc([N+](=O)[O-])cc1` was 8.78%; that for `CCCCN(CC)CCNC(=S)Nc1ccc2nc(N3CCN(C)CC3)cc(C)c2c1` was 5.42%; that for `CCCc1nc2c(C)ccc(C)c2c(N)c1CC` was 3.33%.
As for `CCOC(=O)Cn1c(CN(C)Cc2ccccc2)nc2c1c(=O)n(C)c(=O)n2C`, the figure is 0.34%; as for `CN(C(=O)CSc1nncn1C)C1CCCN(Cc2ccccc2F)C1` (stereo unspecified), -12.1%.
Turning to `Cn1c(=O)c2c(nc(Sc3n[nH]c(N)n3)n2Cc2ccccc2Cl)n(C)c1=O`, the inhibition was -5.63%.
The value for `Cc1ccc2c(c1)-c1c(ssc1=S)C(C)(C)N2C(=O)CSC1=NCCS1` was -9.44%.
Take `CCCn1cc(S(=O)(=O)c2ccccc2)c(=O)c2cc(OCC)ccc21`: the inhibition turned out to be 6.09%.
As for `Cc1noc(C)c1CSCC(=O)N1CCN(c2ccc(F)cc2)CC1`, the figure is -6.3%.
The value for `Cc1ccc(S(=O)(=O)N(C)Cc2ccc(C(=O)N/N=C/c3ccc(OC(F)F)cc3)cc2)cc1` was -2.57%; that for `COc1ccccc1OCC(=O)Nc1ccccc1C(=O)N1CCCCC1` was 0.56%; that for `COc1cc(/C=N/NC(=O)CSCc2ccc([N+](=O)[O-])cc2)cc(OC)c1OC` was 2.13%.
As for `CCOC(=O)C(C)N1C(=O)S/C(=C\c2ccc(-c3ccccc3C(=O)O)o2)C1=O` (stereo unspecified), the figure is -6.08%.
Turning to `Nc1nc2n(n1)C(c1ccccc1)CC(c1ccc(F)cc1)N2` (stereo unspecified), the inhibition was -6.96%.
With `CCOC(=O)N1CCN(C(=O)c2oc3ccc(S(=O)(=O)N4CCOCC4)cc3c2C)CC1`, the inhibition is 1.42%.
Consider `COc1cc(S(=O)(=O)Nc2ccccn2)ccc1F`, for which the inhibition is -6.24%.
As for `CS(=O)(=O)c1ccc2nc(NC(=O)CN3CCN(Cc4ccccc4)CC3)sc2c1`, the figure is 5.12%; as for `O=C(NC1(C(F)(F)F)C(=O)Nc2c1c(=O)[nH]c(=O)n2Cc1ccccc1)c1ccc(Cl)cc1Cl` (stereo unspecified), 8.02%; as for `CC(C)c1nc(SCC(=O)N2CCCCCC2)c2c(=O)n(C)c(=O)n(C)c2n1`, -0.23%.
On to `O=C(O)C(Cc1ccccc1)N1C(=O)/C(=C/c2cccc3ccccc23)SC1=S` (stereo unspecified), for which the inhibition was -0.88%.
As for `COc1ccccc1C1c2ccc3ccccc3c2Oc2ncn(CCN(C)C)c(=N)c21` (stereo unspecified), the figure is 93.8%; as for `CCc1cc(CNC(=O)c2cc(COc3ccc(C)nc3)on2)on1`, 1.48%.
As for `COc1ccc(C2c3[nH]c4ccccc4c3C[C@H]3C(=O)N(CC(C)C)CC(=O)N23)c(OC)c1` (stereo partly specified), the figure is 5.75%.
As for `CCC(=O)NC(c1ccccc1)c1c(O)ccc2ccccc12` (stereo unspecified), the figure is 4.72%.
With `Cc1cccc(NC(=O)c2ccc(S(=O)(=O)N3CCCCC3C)cc2)n1` (stereo unspecified), the inhibition stood at 8.6%.
Regarding `COc1ccccc1NC(=O)c1ccc(Br)c(S(=O)(=O)N2CCCC2)c1`, the inhibition was -4.57%.
The value for `Cc1ccc(CN2CCC(n3nccc3NC(=O)c3ccc4c(c3)OCO4)CC2)o1` was 4.22%.
As for `CCn1ncc(Br)c1C(=O)Nc1cc([N+](=O)[O-])ccc1C`, the inhibition was 10.6%.
As for `COc1ccc(C(=O)NCCCCCCNC(=O)c2ccc(OC)cc2)cc1`, the figure is 12.7%; as for `COc1ccc(/C=N/NC(=O)c2nn(C)cc2Br)cc1CSCc1ccco1`, 7.4%.
Take `CN(C)S(=O)(=O)N1CCC(Oc2cccc(C(=O)NCCC3=CCCCC3)c2)CC1`: the inhibition was determined as 0.43%.
The value for `CCOc1ccc(CCNC(=O)CCc2nnc3ccc(N4CCCC4)nn23)cc1OCC` was -15.3%; that for `O=C(NCC1CCCO1)c1ccc2c(c1)ncn2-c1cccc(F)c1` (stereo unspecified) was -10.6%.
